Assay results as given in the supplement of paper PMC10338343.
± gives the standard deviation. This is a selection; strong and weak results do not stand in their true shares.

Tested on: MIWI (PIWIL1) piRISC loaded with L1MC piRNA (30 nt)
Assay: pre-steady-state target cleavage rate (min^-1); MIWI and MILI are mouse PIWI proteins and EfPiwi is from a freshwater sponge; tags in brackets are library labels; higher = faster piRNA-guided slicing of the target
Conditions: guide: L1MC piRNA 5'p-UAACUAAAUACUAUGCAAGCUGUAGGUCCU; auxiliary factor: 500 nM mouse GTSF1
In short: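 Cleave-'n-Seq used a transcribed, DNA-blocked target RNA library at 0.1 nM and active affinity-purified piRISC with one synthetic guide at 1 nM, with or without 500 nM GTSF1 partner protein, in HEPES–potassium acetate buffer at 33 °C for 0–8 or 0–960 min. Uncleaved targets were sequenced and normalised to depth and to weakly complementary targets, and three trials were pooled with k3 capped at 0.0001 min^-1. The pre-steady-state cleavage rate was estimated by a burst-and-steady-state fit.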

Sequence	pre-steady-state target cleavage rate
UCCUGGAUGUCGAACGUUAAGUAUUUAGUUA	< 0.0001
UCCUGCUACAGGUUGCAUAGUAUUUAGAAA	0.107 ± 0.018
UCCUGGAACAGCUUGCAUACUAUUUUCAAA	0.0459 ± 0.012
UCGACCUACAGCUUGCUAGUAUUUAGUUA	0.219 ± 0.061
UCGACCUACAGCUUCCAUAGUAUUUAGAAA	0.073 ± 0.024
UCCUGGAUGUCGAACCAUUGUAUUUACUUA	< 0.0001
UCCUGGAACAGCUUGCAUUAGUAUUUAGUUA	0.0171 ± 0.0076
UCCUCCUACAGCUUCCAUAGUAUUAAGUUA	0.0607 ± 0.022
UCCUGGAUCAGCUUGCAUAGUAUAAAGAAA	0.0496 ± 0.012
UCCUGGAUCUCCUUGCAUAGUAUUUACAAA	0.111 ± 0.021
UCCUGCUACAGCUUGCAUAGAUAUUAGUUA	0.0496 ± 0.017
AGGACCUACAGCUUGCAUAGAAUUUUCAAA	0.395 ± 0.08
UCCUGGAUGACCUAGCAUAGUAUUUAGUUA	0.0593 ± 0.013
UCCACCUACAGGAAGCAUAGUAUUUACAAA	0.182 ± 0.038
UCCUGGAACAGCUUGCUAAGUAUUUACAAA	0.00474 ± 0.0039
UCCUGGAUGUCGAUGCAUAGUAUUUAGUUG [g2:g17:cont:t1G]	0.00361 ± 0.003
UCCUGGAUCAGCUUGCAUAGUAAAAAGUAA	0.0113 ± 0.0058
UCCUCCUACAGCUUGCAUAGUAUUAUCUAA	0.369 ± 0.05

Sequence	pre-steady-state target cleavage rate
UCCUGCUACAGCUUGCAUUCAAUUUAGUUA	0.00972 ± 0.0043
UCCACCUACUCGUUGCAUAGUAUUUUCAAA	0.129 ± 0.02
UCCUGGAACAGCUUCCAAAGUAUUUAGUUA	0.412 ± 0.034
UCCUGGAUGUCCUUGCAUAGUAUUUUGUAA	0.0108 ± 0.006
UCCUCCUACAGCUUGCUUAGUAUUUAGAAA	0.226 ± 0.035
UCCUGGAACAGCUUGCAAUCUAUUUAGUAA	0.0175 ± 0.0074
UCCUCCUACUCGUUGCAUAGUAUUUUCAAA	0.136 ± 0.02
UCCUGGUACAGCAACCAUAGUAUUUAGUUA	0.0521 ± 0.011
UCCUGCUACAGCUUGCAUAGUAAUAAGUUA	0.364 ± 0.037
UCCUGGAACAGCUACCAUAGUAUUUAGAAA	0.0039 ± 0.0039
UCCACCUACAGCUUGCAUAGUUAAAUCAAA [g10:g27:cont:t1A]	0.0397 ± 0.015
UCCUGCUACAGCUUCGUUAGUAUUUAGUUA	0.0986 ± 0.014
UCGACCUACAGCUUCGAUAGUAUUUAGUAA	0.413 ± 0.042
UCGACCUUCAGCUUGCAUAGUAUUUUCAAA	0.384 ± 0.046
UCCACCUACAGCUUGCAUAGCUAUUUAGUUA	0.0166 ± 0.0079
UCCUGGAUGAGCUUCCAUAGUAUUUUGUUA	0.00578 ± 0.005
UCCUCCUAGUGCUUGCAUAGUAUUUUCAAA	0.0841 ± 0.017
UCCUGGAUGUGCUUGCAAUGUAUUUAGUUA	0.0034 ± 0.0032

Same assay, conditions: guide: L1MC piRNA 5'p-UAACUAAAUACUAUGCAAGCUGUAGGUCCU; auxiliary factor: none (no GTSF1)

Sequence	pre-steady-state target cleavage rate
UCCUGGAUGUCGAACCAUCAGUAUUUAGUUA	< 0.0001
UCCUGGAUGUCGAUGGAUAGUAUUAAGUUA	< 0.0001
UCCUGGAUGUCGAACGUAAGUAUAUAGUAA	< 0.0001
UCCUGGAUGUCGAACGUAUCAAUUAAGUUA	< 0.0001
